Assay results published in PMC4336329 (PLoS ONE, 2015).
The campaign covered roughly 310,000 compounds. About 2,200 (0.71%) showed an effect of 50% or more. Effects have a minus sign here. The list shows a part of the results.

molecular target: human ether-à-go-go-related gene (hERG) potassium channel (human, UniProt Q12809); test: primary screen, population patch clamp on CHO cells stably expressing hERG
Sequence (Q12809 whole entry, looked up): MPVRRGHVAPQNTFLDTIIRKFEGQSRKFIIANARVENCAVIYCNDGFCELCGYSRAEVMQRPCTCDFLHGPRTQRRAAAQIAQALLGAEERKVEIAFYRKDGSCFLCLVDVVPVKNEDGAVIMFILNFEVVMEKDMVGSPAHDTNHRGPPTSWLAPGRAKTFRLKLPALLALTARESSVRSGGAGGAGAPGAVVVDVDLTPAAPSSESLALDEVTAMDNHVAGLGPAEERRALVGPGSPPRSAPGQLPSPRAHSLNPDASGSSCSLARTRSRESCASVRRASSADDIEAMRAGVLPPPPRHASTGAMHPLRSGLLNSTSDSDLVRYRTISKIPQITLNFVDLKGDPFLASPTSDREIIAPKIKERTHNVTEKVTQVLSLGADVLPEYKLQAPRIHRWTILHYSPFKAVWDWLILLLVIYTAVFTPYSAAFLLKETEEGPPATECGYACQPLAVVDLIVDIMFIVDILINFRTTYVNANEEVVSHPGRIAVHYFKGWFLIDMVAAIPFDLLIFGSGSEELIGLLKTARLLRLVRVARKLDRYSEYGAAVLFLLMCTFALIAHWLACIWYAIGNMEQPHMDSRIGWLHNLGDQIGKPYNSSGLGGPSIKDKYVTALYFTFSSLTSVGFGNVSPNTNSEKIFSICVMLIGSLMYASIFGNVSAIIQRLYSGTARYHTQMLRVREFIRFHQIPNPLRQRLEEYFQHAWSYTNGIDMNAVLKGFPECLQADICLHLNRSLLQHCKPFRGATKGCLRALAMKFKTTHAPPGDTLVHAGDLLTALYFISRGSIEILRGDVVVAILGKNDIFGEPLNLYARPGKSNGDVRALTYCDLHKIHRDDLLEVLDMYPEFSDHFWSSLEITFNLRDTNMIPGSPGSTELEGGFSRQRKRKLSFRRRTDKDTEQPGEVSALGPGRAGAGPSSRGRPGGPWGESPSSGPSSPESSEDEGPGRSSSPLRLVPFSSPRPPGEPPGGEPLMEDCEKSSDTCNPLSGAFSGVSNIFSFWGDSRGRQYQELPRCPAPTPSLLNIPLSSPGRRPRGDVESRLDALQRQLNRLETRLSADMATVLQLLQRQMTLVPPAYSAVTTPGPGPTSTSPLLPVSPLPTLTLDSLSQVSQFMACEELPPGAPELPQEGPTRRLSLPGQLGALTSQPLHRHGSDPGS

| Structure (SMILES) | hERG current change (%, negative = inhibition) at 1uM |
| --- | --- |
| CCN(CC(=O)NCCCN1CCOCC1)S(=O)(=O)c1ccc(F)cc1 | 11.2% |
| COc1ccc(C2SCC(=O)Nc3c2c(=O)[nH]n3C2CCCCCC2)cc1OC (stereo not drawn) | 0.213% |
| COc1ccc(C2CC(C(F)(F)F)n3ncc(C(=O)O)c3N2)cc1OC (stereo not drawn) | -6.95% |
| CCOc1ccc(N(CC(=O)NCCc2ccc(Cl)cc2)S(=O)(=O)c2c(C)[nH]c(=O)[nH]c2=O)cc1 | 24.5% |
| COc1ccc(C(=O)N2CCN(c3ccc(C(C)=O)cc3F)CC2)cc1S(=O)(=O)NC1CC1 | -7.57% |
| CCCOc1ccc(NC2=CC(=O)CC(C)(C)C2)cc1 | 9.5% |
| COc1ccc(C2C(C(C)=O)=C(Nc3ccccc3)CC(C)(O)C2C(C)=O)cc1OC (stereo not drawn) | 8.63% |
| CCC(C)(C)C1CCc2[nH]nc(C(=O)NC3CCCCC3)c2C1 (stereo not drawn) | 15.5% |
| O=C(Cn1cncn1)N/N=C/c1ccc(Cl)cc1 | 13.1% |
| O=C(c1ccc(S(=O)(=O)N2CCCCCC2)cc1)N1CCCC(C(F)(F)F)C1 (stereo not drawn) | 4.16% |
| CCc1cc(=O)oc2c(C)c(OC(C)C(=O)NC3CC(C)(C)NC(C)(C)C3)ccc12 (stereo not drawn) | 10.7% |
| CC1CCN(S(=O)(=O)c2ccc3c(c2)c(=O)c(C(=O)N2CCCCC2)cn3C)CC1 | -5.71% |
| C[N+]1(C)CCC(=C2c3ccccc3CC(=O)c3sccc32)CC1.[I-] | 11.5% |
| CCC(C)NC(=O)C1c2ccccc2C(=O)N1Cc1cc(OC)ccc1OC (stereo not drawn) | 11.7% |
| Cc1[nH]n(-c2ccccc2)c(=O)c1C(=O)c1ccc([N+](=O)[O-])cc1 | 10.6% |
| O=C1CC(c2ccc(F)cc2)Cc2nc(NCC3CCCO3)ncc21 (stereo not drawn) | 2.37% |
| Cc1cccc(NC(=O)CNC(=O)CSc2nnc(C(F)(F)F)n2C)c1C | 11.7% |
| O=C1CC(c2nc3ccccc3[nH]2)CN1c1ccccc1F (stereo not drawn) | -3.67% |
| CCCCOCCCNCc1cccn1CCN1CCOCC1.O=C(O)C(=O)O | 16% |
| CC(C)(O)c1ccc2c(c1)CCC1C(C)(C(=O)O)CCCC21C (stereo not drawn) | 6.58% |
| Cc1ccc(NC(=O)CSc2ncn[nH]2)cc1S(=O)(=O)N1CCOCC1 | 7.37% |
| CCOC(=O)c1ccoc1CSCC(=O)N1CCN(S(=O)(=O)c2ccc(C)cc2)CC1 | -10.8% |
| COc1cccc(CNc2ncc(Br)cc2Br)c1O | 13% |
| CC(C)Oc1ccc(CNC(=O)CCCN2C(=O)C(c3ccccc3)Oc3cccnc32)cc1 (stereo not drawn) | 15.9% |
